The results in this text go back to publication PMC4336329 (PLoS ONE, 2015).

SMILES strings stand for the structures. In all, about 310,000 compounds went through this assay and about 14,000 (4.5%) showed an effect of 50% or more. The effect is printed as a negative number. The list shows a part of the results.
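Also: peak tail current of the secondary pulse compared with the same well before compound.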

In this assay the target is human ether-à-go-go-related gene (hERG) potassium channel (human, UniProt Q12809). As to the kind of experiment: primary screen, population patch clamp on CHO cells stably expressing hERG.
Chain of human ether-à-go-go-related gene (hERG) potassium channel (Q12809 whole entry, looked up): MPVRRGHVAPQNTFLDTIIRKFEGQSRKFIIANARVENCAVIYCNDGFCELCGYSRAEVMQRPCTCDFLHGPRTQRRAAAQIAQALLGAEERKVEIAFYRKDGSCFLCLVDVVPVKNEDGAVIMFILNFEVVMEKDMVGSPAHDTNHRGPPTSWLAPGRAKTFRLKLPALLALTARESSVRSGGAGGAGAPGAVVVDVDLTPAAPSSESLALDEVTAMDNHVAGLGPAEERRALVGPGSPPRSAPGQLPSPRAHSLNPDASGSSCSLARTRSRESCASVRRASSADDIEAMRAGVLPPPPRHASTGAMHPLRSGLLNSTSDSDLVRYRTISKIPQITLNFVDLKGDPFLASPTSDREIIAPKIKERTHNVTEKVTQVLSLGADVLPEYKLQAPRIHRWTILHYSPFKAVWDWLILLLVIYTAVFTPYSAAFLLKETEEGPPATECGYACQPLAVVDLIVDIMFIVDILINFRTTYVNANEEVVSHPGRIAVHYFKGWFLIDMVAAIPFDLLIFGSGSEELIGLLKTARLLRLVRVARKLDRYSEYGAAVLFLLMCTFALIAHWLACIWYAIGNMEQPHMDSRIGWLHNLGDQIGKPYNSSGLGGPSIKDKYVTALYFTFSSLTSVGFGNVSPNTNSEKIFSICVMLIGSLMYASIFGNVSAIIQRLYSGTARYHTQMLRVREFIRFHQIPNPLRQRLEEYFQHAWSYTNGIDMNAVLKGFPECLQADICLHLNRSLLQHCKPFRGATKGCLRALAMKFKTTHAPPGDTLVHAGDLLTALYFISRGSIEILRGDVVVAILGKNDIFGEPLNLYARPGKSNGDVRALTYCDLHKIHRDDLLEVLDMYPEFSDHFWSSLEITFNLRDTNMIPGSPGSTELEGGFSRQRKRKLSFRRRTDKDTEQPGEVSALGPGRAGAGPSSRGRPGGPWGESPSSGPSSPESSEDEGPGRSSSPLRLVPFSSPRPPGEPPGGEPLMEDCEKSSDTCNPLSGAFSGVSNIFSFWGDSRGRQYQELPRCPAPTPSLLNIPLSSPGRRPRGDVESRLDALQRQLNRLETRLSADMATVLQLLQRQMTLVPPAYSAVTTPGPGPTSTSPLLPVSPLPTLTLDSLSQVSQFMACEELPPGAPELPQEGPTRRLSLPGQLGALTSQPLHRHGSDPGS
As to `Cc1cc(N/N=C/c2ccc(Cl)cc2)nc(NCc2ccccc2)n1`, the “hERG current change (%, negative = inhibition) at 10uM” value stood at 3.74%. The figure for `Cn1cccc1-c1cc(C(=O)O)[nH]n1` is 17.9%; for `Cn1cc(Cl)c(C(=O)OCC(=O)c2ccccc2)n1` it is 15.7%; for `CCCn1nc(C(=O)Nc2nnc(C3CC3)s2)c2ccccc2c1=O` it is -31.6%. The figure for `CC1CCC2(CC1)NC(=O)N(CC(=O)NCc1ccc3c(c1)OCO3)C2=O` (stereo not shown) is 11.2%; for `c1coc(CNc2nc3ccccc3s2)c1` it is 11.1%.

With `COc1ccc(N(CC(=O)Nc2cccc(C)c2)S(=O)(=O)c2c(C)noc2C)cc1`, the “hERG current change (%, negative = inhibition) at 10uM” value is listed as 5.38%.

As to `Nc1cccc2c(=O)c3ccccc3[nH]c12`, the “hERG current change (%, negative = inhibition) at 10uM” value is given as -2.11%.

As to `Cc1nc([N+](=O)[O-])c(NCCCO)n1Cc1ccccc1`, the “hERG current change (%, negative = inhibition) at 10uM” value came to 9.21%. Then `CC(NCC(=O)Nc1ccccc1C(=O)NC1CC1)c1ccc(S(N)(=O)=O)cc1.O=C(O)C(=O)O` (stereo not shown), with -12.6%. The figure for `CCN1/C(=C2/SC(=S)N(NC(C)=O)C2=O)Sc2ccc(Cl)cc21` is -13.2%. As to `CC(C)c1ccc(/C=N/n2nnnc2Nc2ccccc2)cc1`, the “hERG current change (%, negative = inhibition) at 10uM” value is given as 12.4%. Then `Cc1ccccc1Cn1nc(C)c(NC(=O)/C=C/c2cnn(C)c2)c1C`, with 19.8%; and `CCCCNC(=O)[C@H]1N2C(=O)c3c(ccc(OC)c3OC)C2SC1(C)C` (stereo partly shown), with 12.8%; and `COc1ccc(-n2sc3ccc(F)cc3c2=O)cc1`, with 11.9%. Then `CCCCn1c(N)c(N(CC(C)C)C(=O)COC(=O)C2(c3ccccc3)CC2)c(=O)[nH]c1=O`, with 14%.

As to `O=C(NCc1ccco1)c1nc2c(nnn2Cc2cccc(Cl)c2)c(=O)[nH]1`, the “hERG current change (%, negative = inhibition) at 10uM” value is listed as 3.4%.

Take `CCOc1ccc(Oc2ccc(S(=O)(=O)N3CCOCC3)cc2NC(=O)CCNC(C)=O)cc1`: the “hERG current change (%, negative = inhibition) at 10uM” value was -5.91%. The figure for `Cc1ccc(OCC(=O)NNC(=O)C2CC(=O)N(c3ccc4c(c3)OCCO4)C2)cc1` (stereo not shown) is -4.74%; for `COc1ccc(/C=N/OC(=O)Nc2ccc(Cl)cc2)c(OC)c1` it is 15.2%; for `COCCN1CC(CNC(=O)c2cc(COc3ccccc3SC)on2)CC1=O` (stereo not shown) it is -12.1%.

Consider `CCCN1C2CCCC1CC(NC(=O)Nc1cccc(C(C)=O)c1)C2` (stereo not shown), for which the “hERG current change (%, negative = inhibition) at 10uM” value is recorded as -5.62%.

In the case of `CCOc1ncccc1C(=O)Nc1ccc2nc(C)sc2c1`, the “hERG current change (%, negative = inhibition) at 10uM” value stood at 10.3%. Consider `Cc1ccc(OCc2ccc(C(=O)Nc3cc(C)on3)o2)c([N+](=O)[O-])c1`, for which the “hERG current change (%, negative = inhibition) at 10uM” value is given as 16.8%.

In the case of `C[C@@H](OC(=O)N(C)Cc1ccccc1)[C@H]1O[C@]2(C)CCCC[C@H]1O2`, the “hERG current change (%, negative = inhibition) at 10uM” value was found to be 12%.

In the case of `CCN1CCN(c2ccc(S(=O)(=O)N3CCOCC3)cc2NC(=O)c2ccc(F)cc2Cl)CC1`, the “hERG current change (%, negative = inhibition) at 10uM” value was -35.7%. Then `CC12CCC(=O)N1C(C(=O)NNC(=O)c1ccc(Br)cc1)CS2` (stereo not shown), with -8.4%; and `COc1cccc(CCc2nnc(N)s2)c1`, with 16.7%; and `CC(NC(=O)c1ccc(Cl)cc1)C1CC2CCC1C2` (stereo not shown), with 2.08%. The figure for `COc1ccc(/C=C/C(=O)Nc2ccc(N3CCOCC3)cc2)cc1` is 10.1%. Consider `COc1ccc(N2CCN(C(=O)CSc3nnc4c(C)cc5ccccc5n34)CC2)cc1`, for which the “hERG current change (%, negative = inhibition) at 10uM” value is given as -8.51%. The figure for `C/C(CCc1ccco1)=N/NC(=O)CCC(=O)Nc1cccc(Cl)c1` is 8.56%. The figure for `Cc1ccc(NC(=O)c2cc(S(=O)(=O)N3CCOCC3)cn2C)cc1Cl` is 11.2%; for `CC1=NC(C)(C)Cc2cc(C)c(C)cc21.Cl` it is -9.62%; for `O=C(CN1C(=O)S/C(=C\c2ccccc2Cl)C1=O)NC1C=CS(=O)(=O)C1` (stereo not shown) it is 11.7%. Then `COc1ccc(C2C(CN3CCOCC3)C(=O)N2c2ccccc2)cc1` (stereo not shown), with 9.52%; and `COc1ccccc1NC(=O)COC(=O)c1ccccc1SCC(=O)N1CCCC1`, with 20.2%; and `CCCCCCCCCCCCCCCC(=O)NCCc1c[nH]c2ccccc12`, with 7.6%.

Turning to `O=C1CCCc2nc(N3CCN(C(c4ccccc4)c4ccccc4)CC3)ncc21`, the “hERG current change (%, negative = inhibition) at 10uM” value is -7.92%.

Take `CCc1ccccc1NC(=O)CC(=O)Nc1ccccc1CC`: the “hERG current change (%, negative = inhibition) at 10uM” value amounted to 29.5%. The figure for `Cc1ccccc1Sc1ccc([N+](=O)[O-])cn1` is 3.63%; for `COc1ccccc1NC(=O)c1oc2ccccc2c1NC(=O)c1cc(OC)c(OC)c(OC)c1` it is 15.2%; for `Oc1ccc(Br)cc1C=Nc1ccc(Cl)cc1` it is 16.6%. Then `Cc1ccc[n+](-c2nc([O-])sc2C=O)c1`, with 16.9%. The figure for `CCN1CCN(c2ccc([N+](=O)[O-])cc2C(=O)OC)CC1` is -63.7%. Consider `COC1(OC)N=C(N)C2(C#N)C(c3ccc(F)cc3)C12C#N` (stereo not shown), for which the “hERG current change (%, negative = inhibition) at 10uM” value was 5%.

Regarding `O=C(Nc1nc2c(F)cccc2s1)c1ccco1`, the “hERG current change (%, negative = inhibition) at 10uM” value is -3.85%. The figure for `O=C(Nc1nc(-c2cc3ccccc3oc2=O)cs1)c1ccc(Br)o1` is 3.03%; for `O=S(=O)(Nc1ccc(Br)cc1)c1cccc2cccnc12` it is 17.9%; for `NS(=O)(=O)c1ccc(NC(=O)c2ccc(F)cc2F)c(NC(=O)c2ccc(F)cc2F)c1` it is 4.83%.

`Cc1cc(C2(O)C(=O)Nc3ccccc32)ccc1F` (stereo not shown): the “hERG current change (%, negative = inhibition) at 10uM” value amounted to 15.8%. The figure for `CCCCC(CC)C(=O)Nc1ccccc1C(=O)NC(C)C` (stereo not shown) is -11.6%; for `CN(C)c1ccc(/C=C(\NC(=O)c2ccccc2)C(=O)NCc2cccnc2)cc1` it is -18.9%.

For `Cc1ccc(-n2c(SCn3nnc4ccccc4c3=O)nnc2-c2cccnc2)c(C)c1`, the “hERG current change (%, negative = inhibition) at 10uM” value is given as -39.3%.

With `O=C(Nc1cccc(F)c1)C1CCN(S(=O)(=O)c2cccc3nonc23)CC1`, the “hERG current change (%, negative = inhibition) at 10uM” value was -4.67%.

Turning to `Nc1cc(N)nc(SCCN2CCCCC2)n1`, the “hERG current change (%, negative = inhibition) at 10uM” value was determined as 3.07%. The figure for `COc1ccccc1C(C)Nc1nc(-c2cccnc2)nc2ccccc12` (stereo not shown) is 12.8%; for `CC(Sc1nnc(-c2cccnc2)n1N)C(=O)N1CCOCC1` (stereo not shown) it is 2.34%. The figure for `Cc1noc(C)c1C(=O)NNc1cc(Cl)ccc1Cl` is 1.13%. Then `CC1CCCC(NC(=O)COC(=O)c2ccccc2NC(=O)c2ccco2)C1C` (stereo not shown), with -3.75%; and `COc1ccccc1-c1ccc(SCc2ccc(C)cc2)nn1`, with 12.1%; and `Cc1ccc(NC(=S)NC(=O)c2cncc(Br)c2)cc1Cl`, with -1.16%. With `Cc1cccc(NC(=O)c2nnn(-c3cccc(C(F)(F)F)c3)c2N)c1`, the “hERG current change (%, negative = inhibition) at 10uM” value was 15.8%. Consider `O=c1[nH]c2ccccc2nc1C(Cl)c1ccccc1` (stereo not shown), for which the “hERG current change (%, negative = inhibition) at 10uM” value came out at 2.52%. Then `COC(=O)[C@@H]1CCCN1C(=O)CCc1nnc(C2CCCCC2)o1`, with 6.94%; and `COC(=O)c1sc(N)c(C(=O)OC)c1CSc1nnc(-c2ccccc2Cl)n1C`, with -24.5%; and `CCOC(=O)c1c(NC(=O)C[n+]2ccc(Cc3ccccc3)cc2)sc(C)c1C.[Cl-]`, with -43.5%. Then `C/C(CC(=O)NC1CCCC1)=N\NC(=O)c1ccc([N+](=O)[O-])c(Cl)c1`, with 5.66%. The figure for `Cc1cc(C)nc(SCC(=O)Nn2cnnc2)n1` is 18.9%. As to `Cc1cc(NC(=O)C2CC(c3ccc(F)cc3)=NO2)n(-c2ccccc2)n1` (stereo not shown), the “hERG current change (%, negative = inhibition) at 10uM” value is given as -11.1%. For the compound `COc1ccc(C(=O)C(C)[n+]2ccc(C)c3ccccc32)cc1[N+](=O)[O-].[Br-]` (stereo not shown), the “hERG current change (%, negative = inhibition) at 10uM” value worked out at 4.94%. Then `CN1CCN(c2ccccc2NC(=O)c2ccc(N3CCOCC3)c([N+](=O)[O-])c2)CC1`, with -14.5%; and `Cc1ccc(C)n1-n1cnc2sc(-c3ccccc3)cc2c1=O`, with -9.99%. Then `O=C(CCn1c(=O)c2sccc2n(CC(=O)OCc2ccccc2)c1=O)NCc1ccco1`, with -50%. Then `CCCCNC(=O)c1c[nH]c2ccc(S(=O)(=O)Nc3ccc(OCC)cc3)cc2c1=O`, with 10.3%; and `O=C(c1ccco1)N1N=C(c2ccccc2)CC1c1ccc2nccnc2c1` (stereo not shown), with -45%; and `CN(C)c1ccc(S(=O)(=O)N2CCCCC2)cc1NC(=O)C1=COCCO1`, with -10.2%. In the case of `Cc1ccc(-n2nc(C)c3c2OC(N)=C(C#N)C3c2ccc(F)cc2)cc1` (stereo not shown), the “hERG current change (%, negative = inhibition) at 10uM” value stood at 3.29%. The figure for `CC(C)c1ccc(S(=O)(=O)N2CCN(C(=O)CCNS(=O)(=O)c3ccccc3F)CC2)cc1` is -12.9%; for `CN(C)S(=O)(=O)c1cc(NC(=O)COC(=O)CCSc2ccc(Cl)cc2)ccc1Cl` it is 2.72%; for `COc1ccc(CNCCc2ccccc2F)c(OC)c1C.O=C(O)C(=O)O` it is -31.3%. Then `CC(C)N1CCc2c(sc(NC(=S)NC(=O)c3ccccc3)c2C#N)C1`, with 16.9%. The figure for `COCCCNC(=O)c1ccccc1-c1cc(C)no1` is 13.9%.

Consider `CCCCc1cc(=O)oc2cc(OC3CCCCC3=O)ccc12` (stereo not shown), for which the “hERG current change (%, negative = inhibition) at 10uM” value amounted to 21.7%. Take `Cl.c1csc(CNCCCN2CCOCC2)c1`: the “hERG current change (%, negative = inhibition) at 10uM” value is given as 15.6%. The figure for `COc1ccccc1-n1cnc2cc(NCc3ccco3)ccc21` is -20.7%; for `COc1ccc(C(=O)COC(=O)Cn2cnc3c2c(=O)n(C)c(=O)n3C)c(OC)c1` it is 3.76%; for `OCC[C@H]1C[C@@H](O)[C@H](O)[C@@]2(CCCO2)O1` it is 12.5%.
